According to publication PMC4336329 (PLoS ONE, 2015):
The campaign covered roughly 310,000 compounds. About 2,200 (0.71%) showed an effect of 50% or more. The effect is printed as a negative number. Some of the results follow.

Each molecule was assayed against human ether-à-go-go-related gene (hERG) potassium channel (human, UniProt Q12809) (assay: primary screen, population patch clamp on CHO cells stably expressing hERG).
human ether-à-go-go-related gene (hERG) potassium channel, sequence (Q12809 whole entry, looked up): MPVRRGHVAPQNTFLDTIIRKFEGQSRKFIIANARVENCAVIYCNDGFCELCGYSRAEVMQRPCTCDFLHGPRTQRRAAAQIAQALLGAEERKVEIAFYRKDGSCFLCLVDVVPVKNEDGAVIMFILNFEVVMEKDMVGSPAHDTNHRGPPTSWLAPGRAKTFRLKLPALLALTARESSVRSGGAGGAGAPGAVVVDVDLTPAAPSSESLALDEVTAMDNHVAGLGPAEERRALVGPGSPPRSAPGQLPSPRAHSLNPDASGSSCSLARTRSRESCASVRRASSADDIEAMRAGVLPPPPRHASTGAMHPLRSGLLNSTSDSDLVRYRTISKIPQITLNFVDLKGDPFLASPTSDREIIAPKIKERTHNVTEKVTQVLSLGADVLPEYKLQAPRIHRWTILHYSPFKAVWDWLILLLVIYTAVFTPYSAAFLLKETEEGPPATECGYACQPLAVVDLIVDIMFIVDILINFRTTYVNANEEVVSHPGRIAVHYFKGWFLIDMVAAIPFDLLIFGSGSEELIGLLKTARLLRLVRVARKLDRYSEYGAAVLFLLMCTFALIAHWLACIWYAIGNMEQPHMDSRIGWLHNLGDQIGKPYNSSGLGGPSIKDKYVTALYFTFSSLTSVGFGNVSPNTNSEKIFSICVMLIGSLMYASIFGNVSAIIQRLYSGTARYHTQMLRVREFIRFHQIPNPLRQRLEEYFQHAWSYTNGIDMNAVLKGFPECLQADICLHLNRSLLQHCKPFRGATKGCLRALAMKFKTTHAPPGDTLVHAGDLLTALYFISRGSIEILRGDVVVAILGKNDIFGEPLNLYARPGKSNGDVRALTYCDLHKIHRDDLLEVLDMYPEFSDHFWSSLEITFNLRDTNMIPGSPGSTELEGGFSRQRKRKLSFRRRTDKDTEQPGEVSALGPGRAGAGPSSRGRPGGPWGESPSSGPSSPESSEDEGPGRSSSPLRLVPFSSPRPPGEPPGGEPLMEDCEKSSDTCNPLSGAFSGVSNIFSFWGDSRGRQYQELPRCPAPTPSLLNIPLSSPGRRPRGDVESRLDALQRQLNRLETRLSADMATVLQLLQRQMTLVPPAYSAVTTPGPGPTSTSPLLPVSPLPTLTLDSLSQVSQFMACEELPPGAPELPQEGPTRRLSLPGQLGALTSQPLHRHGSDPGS

Row | Structure (SMILES) | hERG current change (%, negative = inhibition) at 1uM
1 | COc1ccc(S(=O)(=O)N2CCCC(C(=O)Nc3ccc(NC(=O)c4ccccn4)cc3)C2)cc1 (stereo not shown) | 8.55%
2 | COc1cc(OC)cc(C(=O)NCCNc2nc3cc(C)cc(C)c3cc2C#N)c1 | 10.3%
3 | COc1cccc(NC(=O)C(OC(=O)c2ccccc2NS(=O)(=O)c2cccs2)c2ccccc2)c1 (stereo not shown) | 10.6%
4 | COc1ccc(OCC(=O)Nc2ccc(C(=O)Nc3ccccc3C(=O)O)cc2)cc1 | 24.6%
5 | COc1ccc(NC(=O)CCCC(=O)NCCc2ccc(OC)c(OC)c2)cc1 | 10.2%
6 | CC(=O)Cc1nsc(Nc2cccc(C)c2)n1 | 7.99%
7 | O=C(Nc1cccc2ccccc12)c1nn(C23CC4CC(CC(C4)C2)C3)cc1[N+](=O)[O-] | -1.52%
8 | N#Cc1ccc(OCC(=O)NCC2COc3ccccc3O2)cc1 (stereo not shown) | -5.38%
9 | O=S(=O)([O-])Oc1c[nH]c2ccccc12.[K+] | 18.9%
10 | CCOC(=O)N1CCC(NC(=O)CS(=O)Cc2nc(-c3ccc(OC)c(OC)c3)oc2C)CC1 (stereo not shown) | 15.6%
11 | CCc1nnc(NC(=O)CSc2nnc(Cc3cccn3C)n2C)s1 | 12.8%
12 | Cc1ccc(F)c(NC(=O)CCOc2ccccc2C)c1 | 9.97%
13 | CCOC(=O)c1nn(-c2ccccc2Cl)c(=O)cc1OCC(=O)Nc1cccc(OC)c1 | 17.7%
14 | CCCCn1c(SCC(=O)Nc2cc(C)on2)nc2ccsc2c1=O | 8.47%
15 | COCCn1c(SCC(=O)NC(=O)NCc2ccccc2)nc2ccccc2c1=O | 9.92%
16 | CC1CCCCN1S(=O)(=O)c1cccc2nonc12 (stereo not shown) | 3.29%
17 | COc1ccc(C(C(=O)NC2CCCC2)N(CC2CCCO2)C(=O)Cc2cccs2)cc1OC (stereo not shown) | -0.762%
18 | Cc1ccc(S(=O)(=O)Nc2ncnc3sc(C)c(C)c23)cc1 | -0.125%
19 | CCN(CC)CCNC(=O)c1ccc(NC2=NC3CS(=O)(=O)CC3S2)cc1 (stereo not shown) | 12.1%
20 | CC(C)CCNC(=O)C1CC(c2cccc([N+](=O)[O-])c2)=NO1 (stereo not shown) | -5.13%
21 | Cc1ccc(S(=O)(=O)N2CCOCC2)cc1C(=O)OCC(=O)NCc1ccccc1 | 5.03%
22 | Cc1onc(-c2ccccc2)c1C(=O)Nc1ccc(S(=O)(=O)N2CCCC2)cc1 | 5.41%

Row | Structure (SMILES) | hERG current change (%, negative = inhibition) at 1uM
23 | COc1cc(NC(=S)N2CCN(S(=O)(=O)c3ccccc3)CC2)cc(OC)c1 | 13.3%
24 | CSc1ccccc1C(=O)NC(C)c1ccc(-n2ccnc2)cc1 (stereo not shown) | -0.703%
25 | Cc1cc(C)c(C)c(S(=O)(=O)NCCCn2ccnc2)c1C | 12.9%
26 | COc1ccc(C(=O)Nc2ccc(S(=O)(=O)N3CCCCC3C)cc2)c(OC)c1OC (stereo not shown) | 3.37%
27 | Cc1ccc(CN2C(=O)N/C(=C\c3ccc(N4CCOCC4)cc3)C2=O)cc1 | 1.93%
28 | CCCCCCNc1cc(C)oc(=O)c1C(C)=O | -5.57%
29 | O=C(Nc1ccc(C(=O)NC2CCCCC2)cc1)c1cccnc1 | 1.66%
30 | Cn1c(=O)c(C(=O)COC(=O)c2cc(C(F)(F)F)nc3ccccc23)c(N)n(Cc2ccccc2)c1=O | 5.2%
31 | O=C(COC(=O)Cc1ccccc1)Nc1ccc(SC(F)F)cc1 | 6.9%
32 | COc1ccc(C2Nc3ccccc3C(=O)N2Cc2ccco2)cc1CN1C(=O)c2ccccc2C1=O (stereo not shown) | 5.82%
33 | Cc1ccc2oc(C(=O)NCCCN3CCOCC3)c(C)c2c1 | -6.11%
34 | COc1ccc(CN(C)C(=O)c2cnc(OC)cc2C(F)(F)F)c(OC)c1 | -2.66%
35 | COc1ccc(CC(=O)NCc2ccc3c(c2)cc(C)n3C)cc1OC | 7.58%
36 | CCCCOc1ccc(C(=O)Nc2ccc3c(c2)C(=O)NC3=O)cc1 | -4.89%
37 | Cc1cccnc1NC(=O)Nc1cccc2ccccc12 | 0.589%
38 | O=C(Nc1ccccc1C(=O)N/N=C/c1ccc(F)cc1)c1ccccc1Br | -14.1%
39 | C#Cc1ccc([C@@H]2C=C(C(=O)OCC=C)O[C@H](OCCCCO)C2)cc1 | 12.2%
40 | O=C(Nc1cnn(Cc2ccc(F)cc2)c1)c1cnn2c(C(F)F)cc(-c3ccccc3)nc12 | 9.51%
41 | CC1S/C(=N/N=C/c2cccc([N+](=O)[O-])c2)NC1=O (stereo not shown) | 6.01%
42 | Cc1ccc(Cn2c(C)nc3c(c2=O)c2nc4ccccc4nc2n3Cc2ccco2)cc1 | 16%
43 | O=P(C1=C(N2CCOCC2)/C(=C\c2ccccc2)CC1)(N1CCOCC1)N1CCOCC1 | 4.46%
